{"source": "PubChem BioAssay AID686979", "about": "(National Center for Advancing Translational Sciences (NCATS), 2013)", "note": "Hit rate of the full screen: of about 420,000 compounds, about 50,000 (12%) were called active. Inconclusive results, whose numbers are uncertain, are shown with a selection of clear calls. Calls come from the whole dose curve; as a rule, active = well fitted inhibition curve with a large enough effect; inconclusive = small, poorly fitted or top-dose-only effect; inactive = flat fitted curve, though single readings scatter. Potencies of inconclusive entries are left out as doubtful fits. Some structures have more than one record in an assay (separate samples or runs), and their calls can disagree. % is set by controls: 0 for no effect and ±100 for the full control effect; potency is the fitted concentration of half-maximal effect; tags give direction and shape of the fitted curve.", "data": [{"assay": "qHTS for Inhibitors of human tyrosyl-DNA phosphodiesterase 1 (TDP1): qHTS in cells in presence of CPT; note: nearly all actives have a fitted effect of over 55% in size", "settings": "chicken DT40 Tdp1-/-;hTDP1 cells + 20 nM CPT, ATP luminescence, 48 h; activity change, negative = growth inhibition: at 46.2 µM (top of the series)", "outline": "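Cell growth measured by CellTiter-Glo luminescence after a minimum 48 h, 37 C compound exposure with 20 nM CPT in Tdp1-knockout DT40 cells stably expressing hTDP1, seeded 400/well; qHTS titration format.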", "values": [{"smiles": "CCOC(=O)c1cc(S(=O)(=O)N(C)Cc2ccccc2)cn1C", "activity change, negative = growth inhibition": "inconclusive: -37.3% [inhibitor]"}, {"smiles": "COc1cc2c(O)c3c(c(-c4ccc5c(c4)OCO5)c2cc1OC)C(=O)OC3", "Potency": "active: 1.84 µM"}, {"smiles": "COc1ccccc1N1CCN(C(=O)CCS(=O)(=O)c2ccc3c(c2)NC(=O)C(C)S3)CC1", "note": "(stereo unspecified)", "Potency": "inconclusive [inhibitor, partial curve]"}, {"smiles": "CC(=O)Nc1cc(NC(C)=O)cc(-c2nc3ccccc3[nH]2)c1", "Potency": "active: 8.2 µM"}, {"smiles": "CCCCC1(CO)C(=O)N(c2ccccc2)N(c2ccccc2)C1=O", "Potency": "inconclusive [inhibitor, single point]"}, {"smiles": "O=C(CN(Cc1ccccc1Cl)C(=O)c1csnn1)NCc1ccc(F)cc1", "activity change, negative = growth inhibition": "inactive: -21%"}, {"smiles": "Cc1ccc(-c2nnc(-c3cccc4ccccc34)o2)cc1", "Potency": "active: 16.4 µM"}, {"smiles": "CCN(CC)C1CCN(C(=O)c2cnn(-c3nccc(-c4ccccc4OC)n3)c2-c2ccco2)C1", "note": "(stereo unspecified)", "activity change, negative = growth inhibition": "inactive: -1.94% [at 9.04 µM]"}, {"smiles": "Cc1nc2ccccc2n1CCc1nc2c3ccccc3nc(SCC(=O)NCc3ccco3)n2n1", "Potency": "inconclusive [inhibitor, single point]"}, {"smiles": "CCc1cc2c(C)cc(=O)oc2cc1OC(=O)C1CCCN1C(=O)OC(C)(C)C", "note": "(stereo unspecified)", "Potency": "inconclusive [inhibitor, single point]"}, {"smiles": "Cc1ccc2c(c1)N(CC(=O)NC1CCCC(C)C1C)C(=O)c1cccnc1O2", "note": "(stereo unspecified)", "activity change, negative = growth inhibition": "inactive: -15.8%"}, {"smiles": "COc1ccc(CN(C(=O)c2ccco2)c2ccccc2)cc1", "Potency": "inconclusive [inhibitor, partial curve, poor fit]"}, {"smiles": "Cc1nc(N2CCN(S(=O)(=O)c3cccc4nonc34)CC2)c2c3c(sc2n1)CCCC3", "Potency": "inconclusive [inhibitor, single point]"}, {"smiles": "CCn1c(O)c(N=NC(=O)c2cccnc2)c2cc(Br)ccc21", "Potency": "inconclusive [inhibitor, single point]"}, {"smiles": "Cn1c(CCN2CCCC2)nc2cc(NC(=O)COc3ccc(Cl)cc3)ccc21", "Potency": "inconclusive [inhibitor, single point]"}, {"smiles": "CCCCC(=O)NC(=S)Nc1cccc(Cl)c1N1CCCCC1", "Potency": "inconclusive [inhibitor, single point]"}, {"smiles": "CCn1c(C(=O)N2CCC(C(=O)NCCc3ccc(OC)cc3OC)CC2)cc2sccc21", "Potency": "active: 20.6 µM"}, {"smiles": "O=C(COc1ccccc1Br)N1CCNC1=O", "activity change, negative = growth inhibition": "inactive: 6.83%"}, {"smiles": "Clc1cccc(-c2ccc(CNCc3ccccn3)o2)c1", "Potency": "inconclusive [inhibitor, single point]"}, {"smiles": "Cc1ccc(C(=O)NCc2ccco2)cc1S(=O)(=O)N1CCCC1", "Potency": "inconclusive [inhibitor, partial curve]"}, {"smiles": "CCOC(=O)C1(Cc2cccc(Cl)c2)CCCN(C(=O)c2cccnc2)C1", "note": "(stereo unspecified)", "Potency": "inconclusive [inhibitor, single point]"}, {"smiles": "CC(C)N(Cc1nc(-c2ccccc2)no1)C(=O)c1ccc([N+](=O)[O-])cc1", "Potency": "active: 4.61 µM"}, {"smiles": "CCOC(=O)C(CC)Sc1ccc2nnc(CCNS(=O)(=O)c3ccc(C)cc3)n2n1", "note": "(stereo unspecified)", "Potency": "inconclusive [inhibitor, single point]"}, {"smiles": "O=C(Nc1ccccc1)N1CCN(c2cccc(C(F)(F)F)c2)CC1", "Potency": "active: 20.6 µM"}, {"smiles": "CCOC(=O)C1CCCN(CC(=O)Nc2cccc(C(C)=O)c2)C1", "note": "(stereo unspecified)", "activity change, negative = growth inhibition": "inactive: 4.71%"}, {"smiles": "CSc1nc(C(=O)N2CCc3c(cnc(C)c3CNC(=O)c3ccc4c(c3)OCO4)C2)cs1", "Potency": "active: 0.13 µM"}, {"smiles": "O=C(Nc1nc(OCC(F)(F)F)cnc1/C=C\\c1ccccc1)c1ccsc1", "Potency": "active: 23.1 µM"}, {"smiles": "COc1cccc2c1Oc1ncccc1N(C(=O)Nc1ccc(F)c(Cl)c1)C2", "Potency": "inconclusive [inhibitor, single point]"}, {"smiles": "O=C(OC(C(=O)NCC1CCCO1)c1ccccn1)c1cccs1", "note": "(stereo unspecified)", "activity change, negative = growth inhibition": "inactive: -2.36%"}, {"smiles": "CN(C)c1ccc(/C=N/N(CCC(=O)NC(C)(C)C)C2=NS(=O)(=O)c3ccccc32)cc1", "activity change, negative = growth inhibition": "inactive: 0.479%"}, {"smiles": "CCc1ccc(S(=O)(=O)c2nnn3c2nc(NC2CCCCCC2)c2sccc23)cc1", "Potency": "inconclusive [inhibitor, single point]"}, {"smiles": "O=C(O)CC[C@@H](C(=O)O)N1C(=O)c2ccccc2C1=O", "Potency": "inconclusive [inhibitor, single point]"}, {"smiles": "CN(C)CCCn1c2c(c(SCC(=O)Nc3ccc4c(c3)OCCO4)nc1=O)CCCC2", "activity change, negative = growth inhibition": "inactive: -17.7%"}, {"smiles": "Cn1nc([N+](=O)[O-])nc1Oc1ccc(C(C)(C)C)cc1", "Potency": "inconclusive [inhibitor, partial curve]"}, {"smiles": "COc1cc(NC(=O)CCl)ccc(=O)c1", "Potency": "active: 13 µM"}, {"smiles": "COc1cc(OC)c(C2=Nc3ccc(Br)cc3C(c3ccccc3)N2CC(=O)NN)cc1OC", "note": "(stereo unspecified)", "activity change, negative = growth inhibition": "inactive: 6.69%"}, {"smiles": "O=C(NCCCCc1ccccc1)c1ccccc1Br", "activity change, negative = growth inhibition": "inactive: 0.709%"}, {"smiles": "Cc1ccc(N2C(=S)N=C(Nc3ccccc3C)C23CCOC(C)(C)C3)cc1", "note": "(stereo unspecified)", "Potency": "inconclusive [inhibitor, partial curve]"}, {"smiles": "COc1ccc(NC(=O)c2ccc(-c3nc(CSc4ccccc4)c(C)o3)cc2)cc1OC", "Potency": "inconclusive [inhibitor, single point]"}, {"smiles": "Cc1cc(Cl)c(OCCn2ccnc2)c(Br)c1", "Potency": "active: 11.6 µM"}, {"smiles": "NC(=O)C(CCc1nc2ccccc2[nH]1)NS(=O)(=O)c1ccccc1", "note": "(stereo unspecified)", "activity change, negative = growth inhibition": "inactive: -11.3%"}, {"smiles": "CCCCCC(=O)Nc1cc(S(=O)(=O)N2CCOCC2)ccc1Oc1ccc(OCC)cc1", "Potency": "inconclusive [inhibitor, single point]"}, {"smiles": "COc1ccc(-c2c3c(=O)n(C)c(=O)n(C)c3cn2-c2ccccc2O)cc1", "Potency": "inconclusive [inhibitor, full curve, poor fit]"}, {"smiles": "CCOCCCNC(=O)C1CCC(CNS(=O)(=O)c2ccc(NC(C)=O)cc2)CC1", "note": "(stereo unspecified)", "activity change, negative = growth inhibition": "inactive: -5.01%"}, {"smiles": "CCN(C(=O)c1c(-c2ccccc2)noc1C)c1ccccc1", "Potency": "inconclusive [inhibitor, single point]"}, {"smiles": "CN(C(=O)CSc1nnc(-c2ccccc2)c(-c2ccccc2)n1)C1CCS(=O)(=O)C1", "note": "(stereo unspecified)", "Potency": "active: 16.4 µM"}, {"smiles": "N#Cc1c(N)oc(-c2ccco2)c1-c1ccco1", "Potency": "inconclusive [inhibitor, single point]"}, {"smiles": "C=C(C)COc1ccc(-c2n[nH]c(C)c2-c2ccc(Br)cc2)c(O)c1", "Potency": "active: 18.4 µM"}, {"smiles": "Cc1ccc(NS(=O)(=O)c2ccc(C)c(NC(=O)COc3ccc4ccccc4c3)c2)c(C)c1", "Potency": "inconclusive [inhibitor, single point]"}, {"smiles": "COc1ccc(OC)c(NC(=O)Cn2c(=O)n(Cc3ccccc3)c(=O)c3ccccc32)c1", "Potency": "inconclusive [inhibitor, single point]"}, {"smiles": "Cc1cc2occ(CC(=O)NNC(=O)c3ccccc3)c2cc1C", "activity change, negative = growth inhibition": "inactive: -0.591%"}, {"smiles": "C=CCOC(=O)C(C#N)c1nc2ccccc2nc1N1CCN(c2ccccc2OC)CC1", "note": "(stereo unspecified)", "Potency": "inconclusive [inhibitor, single point]"}, {"smiles": "CCn1cc(C(=O)N2CCN(c3cccc(Cl)c3)CC2)c(=O)c2cc(S(=O)(=O)N3CCCCC3)ccc21", "activity change, negative = growth inhibition": "inactive: -9.54%"}, {"smiles": "CCc1ccc(OCCOCC(O)CNC2CCCC2)cc1", "note": "(stereo unspecified)", "Potency": "inconclusive [inhibitor, single point]"}, {"smiles": "COCc1cc(C)nc(SCC(=O)Nc2nc(C)cs2)c1C#N", "Potency": "inconclusive [inhibitor, partial curve]"}, {"smiles": "COc1ccc(-c2cc(-c3ccc(OC)cc3)c(C#N)c(SC)n2)cc1", "activity change, negative = growth inhibition": "inactive: -27.1%"}, {"smiles": "N#CC(c1ccc(N)cc1)C(CC(=O)c1ccccc1)c1ccccc1", "note": "(stereo unspecified)", "Potency": "inconclusive [inhibitor, single point]"}, {"smiles": "COc1ccc(/C=N/OCC(=O)N=Nc2c(O)[nH]c3ccc(Br)cc23)cc1", "Potency": "inconclusive [inhibitor, single point]"}, {"smiles": "CCOC(=O)C1(Cc2ccccc2C)CCCN(C(=O)CSC)C1", "note": "(stereo unspecified)", "Potency": "inconclusive [inhibitor, full curve, poor fit]"}, {"smiles": "CCCn1c(C)cc(C(=O)COC(=O)c2cc(S(=O)(=O)NCC(C)C)c(Cl)cc2Cl)c1C", "Potency": "inconclusive [inhibitor, single point]"}, {"smiles": "COc1cc(OC)cc(C(=O)Nc2ccc3nc(N4CCCCC4)cc(C)c3c2)c1", "Potency": "active: 14.6 µM"}, {"smiles": "N#CC1=C(SCC(N)=O)NC2=C(C(=O)c3ccccc32)C1c1ccc(Cl)cc1", "note": "(stereo unspecified)", "Potency": "active: 29.1 µM"}, {"smiles": "COc1ccc(Nc2nnc(SCC(=O)N3CCCC3)s2)cc1", "Potency": "inconclusive [inhibitor, single point]"}, {"smiles": "CCOc1ccc(-n2c(SCC(N)=O)nc3c([nH]c4ccccc43)c2=O)cc1", "Potency": "active: 13 µM"}, {"smiles": "CC(=O)Nc1ccc(S(=O)(=O)Nc2ccc(Nc3ccccc3)cc2)cc1", "Potency": "inconclusive [inhibitor, single point]"}, {"smiles": "CC(C)CC(C(=O)NC1CCCCC1)N(Cc1ccccc1)C(=O)c1snc(C(N)=O)c1N", "note": "(stereo unspecified)", "Potency": "inconclusive [inhibitor, single point]"}, {"smiles": "COc1ccc(NC(=O)C2C3C=CC4(O3)C2C(=O)N(CCCN2CCCCC2)C4C(=O)NC2CCCC(C)C2C)cc1", "note": "(stereo unspecified)", "activity change, negative = growth inhibition": "inactive: 17.6%"}, {"smiles": "CN(CC(=O)NCCCc1ccccc1)Cc1ccc(Br)cc1", "Potency": "inconclusive [inhibitor, partial curve]"}, {"smiles": "COc1ccc(-c2nnc(SCC(=O)N3CCCC(C)C3)o2)c(OC)c1", "note": "(stereo unspecified)", "Potency": "inconclusive [inhibitor, partial curve, poor fit]"}, {"smiles": "Cc1ccc(C)c(N2CCN(C3CCCCC3NS(=O)(=O)c3ccccc3)CC2)c1", "note": "(stereo unspecified)", "Potency": "active: 7.31 µM"}, {"smiles": "COc1cccc(CCNC(=O)c2cc(COc3cccc(OC)c3)on2)c1", "Potency": "inconclusive [inhibitor, single point]"}]}]}
